Test results as given in a compilation of properties of binary mixtures (doi:10.1021/je060497d).
Some of these densities may be calculated back from excess volumes.

Experiment: xn = mol fraction of the nth substance listed
Conditions: 101 kPa

CCCCCC[n+]1ccn(C)c1.F[P-](F)(F)(F)(F)F + CC(C)O
mass density [kg/m3]
Conditions | x1 = 0.0011 | x1 = 0.0019 | x1 = 0.0024 | x2 = 0 | x2 = 0.0067 | x2 = 0.074 | x2 = 0.189 | x2 = 0.3042 | x2 = 0.3877 | x2 = 0.5107
293.15 K | 787 | – | – | – | 1296.2 | 1283.9 | 1261.8 | 1236 | – | –
298.15 K | 782.8 | 784.2 | 785.4 | 1293.7 | 1292.2 | 1279.9 | 1257.7 | 1232 | – | 1168.7
303.15 K | 778.5 | 780 | 781.1 | 1289.6 | 1288.3 | – | 1253.8 | 1227.9 | 1205.3 | 1164.6

CCCC[n+]1ccn(C)c1.F[P-](F)(F)(F)(F)F + CC(C)O
mass density [kg/m3]
Conditions | x1 = 0.0008 | x1 = 0.0011 | x2 = 0 | x2 = 0.0458 | x2 = 0.1055 | x2 = 0.1825 | x2 = 0.2864
293.15 K | 786.3 | – | 1371.6 | – | 1347.6 | 1328.2 | 1298.5
298.15 K | 782.3 | 782.9 | 1367.3 | 1357.2 | 1343.4 | 1324 | 1294.3
303.15 K | – | 778.5 | 1363 | 1353 | 1339.3 | 1319.8 | 1290

COS(=O)(=O)[O-].Cn1cc[n+](C)c1 + CC(C)O
mass density [kg/m3]
Conditions | 293.15 K | 298.15 K | 303.15 K
x2 = 0 | 1330.9 | 1327.2 | –
x2 = 0.0498 | 1317.5 | 1314 | 1310.4
x2 = 0.0958 | 1304.8 | 1301.4 | –
x2 = 0.2008 | – | 1270.7 | 1267.4
x2 = 0.3063 | 1239.9 | 1236.3 | 1232.7
x2 = 0.4013 | 1204 | 1200.3 | 1196.7
x2 = 0.4957 | 1162.4 | 1159 | 1155
x2 = 0.5945 | – | 1108.5 | 1104.7
x2 = 0.7039 | 1045.8 | 1042 | 1038.3
x2 = 0.8013 | 975.7 | 971.8 | 967.9
x2 = 0.9019 | – | 884.8 | 880.8
x2 = 0.951 | – | 835.9 | 831.6

CCCC[n+]1ccn(C)c1.F[P-](F)(F)(F)(F)F + CCC(C)=O
mass density [kg/m3]
Conditions | 293.15 K | 298.15 K | 303.15 K
x2 = 0 | 1371.6 | 1367.3 | 1363
x2 = 0.0509 | 1359.7 | 1355.5 | –
x2 = 0.0987 | 1348.3 | 1344 | 1339.7
x2 = 0.1907 | 1323.9 | 1319.8 | –
x2 = 0.2915 | 1293.9 | 1289.8 | 1285.5
x2 = 0.4057 | 1254.1 | 1250.1 | 1245.7
x2 = 0.5074 | 1211.6 | 1207.3 | 1203
x2 = 0.5956 | – | – | 1159
x2 = 0.7008 | – | – | 1095.3
x2 = 0.7919 | 1036.2 | 1031.3 | 1026.8
x2 = 0.8942 | 938.8 | 934 | 929.1
x2 = 0.9467 | – | 872.6 | 867.6

COS(=O)(=O)[O-].Cn1cc[n+](C)c1 + CCC(C)=O
mass density [kg/m3]
Conditions | x1 = 0.0006 | x1 = 0.0012 | x1 = 0.0029 | x2 = 0 | x2 = 0.0257 | x2 = 0.0716 | x2 = 0.2017 | x2 = 0.2926
293.15 K | 806.5 | – | 809.5 | 1330.9 | 1323.5 | 1310.6 | 1273.8 | 1244
298.15 K | 800.7 | 801.5 | – | – | – | 1307.1 | 1270.1 | 1240.3
303.15 K | – | 796.7 | 799.1 | 1323.7 | – | – | 1266.4 | 1236.5

CCOC(C)=O + CCCCCCCC[n+]1ccn(C)c1.F[P-](F)(F)(F)(F)F
x1 = 1
Conditions | mass density [kg/m3]
298.15 K | 894.4
303.15 K | 888.2

CC(C)O + CCCC[n+]1ccn(C)c1.F[P-](F)(F)(F)(F)F
x1 = 1
Conditions | mass density [kg/m3]
293.15 K | 785
303.15 K | 776.6

CCC(C)=O + CCCC[n+]1ccn(C)c1.F[P-](F)(F)(F)(F)F
Conditions | mass density [kg/m3]
303.15 K, x1 = 1 | 794.9

CCOC(C)=O + CCCC[n+]1ccn(C)c1.F[P-](F)(F)(F)(F)F
Conditions | mass density [kg/m3]
293.15 K, x1 = 1 | 900.5

CCCCCCCC[n+]1ccn(C)c1.F[P-](F)(F)(F)(F)F + CCOC(C)=O
mass density [kg/m3]
Conditions | 293.15 K | 298.15 K | 303.15 K
x2 = 0 | 1239.6 | 1235.7 | 1231.9
x2 = 0.0048 | – | 1235.2 | –
x2 = 0.0967 | 1228.7 | 1224.8 | 1220.9
x2 = 0.1981 | 1215.3 | 1211.3 | 1207.4
x2 = 0.2967 | 1200.1 | 1196.2 | 1192.2
x2 = 0.3954 | 1182.7 | 1178.5 | 1174.4
x2 = 0.5056 | 1158.3 | 1153.9 | 1149.6
x2 = 0.6061 | – | 1126.1 | –
x2 = 0.7059 | 1095.5 | 1090.8 | 1086
x2 = 0.8004 | – | 1047.2 | 1042.2
x2 = 0.9036 | 987.8 | 982.3 | 976.8
x2 = 0.9453 | 954.3 | – | 942.9

CCCC[n+]1ccn(C)c1.F[P-](F)(F)(F)(F)F + CCOC(C)=O
mass density [kg/m3]
Conditions | 293.15 K | 298.15 K | 303.15 K
x2 = 0 | 1371.6 | 1367.3 | 1363
x2 = 0.0501 | 1361.5 | 1357.3 | 1352.9
x2 = 0.1003 | 1350.6 | 1346.3 | –
x2 = 0.1854 | 1330.9 | 1326.6 | 1322.2
x2 = 0.3 | – | 1297 | 1292.6
x2 = 0.4064 | 1268.7 | 1264.7 | 1260.3
x2 = 0.5117 | 1230.7 | – | –
x2 = 0.6032 | 1191.4 | 1186.8 | 1182
x2 = 0.7061 | 1138.2 | – | –
x2 = 0.802 | 1077.6 | 1072.2 | 1067
x2 = 0.9021 | – | 993.4 | 987.7
x2 = 0.948 | – | 950.6 | 944.6

COS(=O)(=O)[O-].Cn1cc[n+](C)c1 + CCOC(C)=O
mass density [kg/m3]
Conditions | x2 = 0 | x2 = 0.0509 | x2 = 0.0706 | x2 = 0.0928 | x2 = 0.1254 | x2 = 0.1451
293.15 K | 1330.9 | 1317.7 | – | 1308.3 | 1301.1 | 1296.6
298.15 K | 1327.2 | 1314.2 | 1309.8 | 1304.7 | 1297.5 | 1293
303.15 K | 1323.7 | 1310.7 | 1306.2 | 1301 | 1293.8 | –

CC(C)O + COS(=O)(=O)[O-].Cn1cc[n+](C)c1
x1 = 1
Conditions | mass density [kg/m3]
293.15 K | 785
303.15 K | 776.6

CCC(C)=O + COS(=O)(=O)[O-].Cn1cc[n+](C)c1
x1 = 1
Conditions | mass density [kg/m3]
293.15 K | 805.6
303.15 K | 794.9

CCOC(C)=O + COS(=O)(=O)[O-].Cn1cc[n+](C)c1
x1 = 1
Conditions | mass density [kg/m3]
293.15 K | 900.5
303.15 K | 888.2
